# Out of some 310,000 compounds screened, about 2,200 (0.71%) showed an effect of 50% or more. The effect is printed as a negative number. Some of the results follow.
# Biological target: human ether-à-go-go-related gene (hERG) potassium channel (human, UniProt Q12809)
# Experiment: primary screen, population patch clamp on CHO cells stably expressing hERG
# Chain of human ether-à-go-go-related gene (hERG) potassium channel (Q12809 whole entry, looked up): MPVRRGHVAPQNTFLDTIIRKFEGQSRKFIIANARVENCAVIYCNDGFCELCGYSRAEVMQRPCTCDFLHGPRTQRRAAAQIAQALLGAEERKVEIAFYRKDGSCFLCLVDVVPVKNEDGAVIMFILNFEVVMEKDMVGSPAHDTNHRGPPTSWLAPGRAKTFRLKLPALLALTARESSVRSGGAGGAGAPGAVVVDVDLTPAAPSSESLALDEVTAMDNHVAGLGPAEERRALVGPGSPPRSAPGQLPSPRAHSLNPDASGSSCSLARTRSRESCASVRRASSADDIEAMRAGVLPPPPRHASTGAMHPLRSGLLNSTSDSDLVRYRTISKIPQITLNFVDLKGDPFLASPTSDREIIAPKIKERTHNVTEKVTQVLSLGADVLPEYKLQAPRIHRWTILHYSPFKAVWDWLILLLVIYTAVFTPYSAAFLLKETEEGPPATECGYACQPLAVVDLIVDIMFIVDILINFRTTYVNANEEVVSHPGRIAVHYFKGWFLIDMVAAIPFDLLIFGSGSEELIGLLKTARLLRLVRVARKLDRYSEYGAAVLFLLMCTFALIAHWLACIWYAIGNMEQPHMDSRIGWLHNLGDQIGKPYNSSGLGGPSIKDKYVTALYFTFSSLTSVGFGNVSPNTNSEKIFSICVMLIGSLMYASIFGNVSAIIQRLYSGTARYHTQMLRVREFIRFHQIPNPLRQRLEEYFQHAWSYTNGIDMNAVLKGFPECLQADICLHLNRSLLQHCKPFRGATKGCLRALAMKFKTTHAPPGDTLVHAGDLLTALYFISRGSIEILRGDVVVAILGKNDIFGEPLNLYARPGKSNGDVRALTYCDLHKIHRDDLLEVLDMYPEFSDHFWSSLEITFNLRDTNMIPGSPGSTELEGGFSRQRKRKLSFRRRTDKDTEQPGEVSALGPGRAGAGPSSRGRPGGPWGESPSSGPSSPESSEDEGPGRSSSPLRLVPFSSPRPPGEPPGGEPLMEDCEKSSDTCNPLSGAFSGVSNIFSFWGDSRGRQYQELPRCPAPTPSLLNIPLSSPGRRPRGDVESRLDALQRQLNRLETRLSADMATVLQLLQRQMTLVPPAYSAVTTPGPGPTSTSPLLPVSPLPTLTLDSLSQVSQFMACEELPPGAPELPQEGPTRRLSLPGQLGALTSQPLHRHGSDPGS
row,SMILES,"hERG current change (%, negative = inhibition) at 1uM [%]"
1,CCOc1ccc2c(c1)c(N=O)c(O)n2C,7.07
2,COC(=O)c1ccc(CN2C(=O)NC3(CCCc4ccccc43)C2=O)o1 (stereo not drawn),2.4
3,CCN(Cc1ccccc1)C(=O)COC(=O)c1cc(=O)[nH]c2ccccc12,3.62
4,COC(=O)NCC(c1ccc2c(c1)OCO2)N1CCN(c2ccc(OC)cc2)CC1 (stereo not drawn),8.79
5,CCc1cc2cc(C(=O)Nc3ccc(C)cc3)sc2s1,10.6
6,O=C(O)c1ccc(-n2c(-c3ccc(Br)cc3)n[nH]c2=S)cc1,6.26
7,CC1=C(C)CC2C(=O)N(c3cccc4ccccc34)C(=O)C2C1 (stereo not drawn),6.97
8,COc1ccc(Cl)cc1C(=O)Nc1ccncc1,5.55
9,COC(=O)[C@@H]1CCCN1C(=O)CCc1nnc(CCc2c[nH]c3ccccc23)o1,14.1
10,COc1ccccc1C(CNC(=O)c1ccco1)N1CCCC1 (stereo not drawn),11.2
11,Cc1csc(Sc2ccc(S(=O)(=O)N3CCCC3)cn2)n1,-2.28
12,CS(=O)(=O)Nc1ccc(C2=NN(C(=O)c3ccccc3)C(c3cccs3)C2)cc1 (stereo not drawn),4.97
13,Cc1ccc(S(=O)(=O)Nc2cc(=O)[nH]c(SCc3ccc(Cl)cc3)n2)cc1,7.67
14,COc1ccc(OC)c(/C=N/OC(=O)Nc2ccc(Cl)cc2)c1,4.19
15,COc1ccc(C(=O)N(CC2CCCO2)C(C(=O)NC2CCCC2)c2ccc(C)cc2)cc1OC (stereo not drawn),-7.31
16,CCCCCOC(=O)C1C(c2ccccc2)C(C(=O)O)C1c1ccccc1 (stereo not drawn),4.59
17,Cn1nc(-c2ccccc2)c(CO)c1Sc1ccccc1,18
18,CCN(CC(=O)Nc1c(F)cccc1F)C(=O)c1ccc(COc2ccccc2)o1,10.5
19,O=C1CC2CS(=O)(=O)CC2N1C1CCCCC1 (stereo not drawn),15.6
20,O=c1cc(NCCO)c2ccccc2o1,7.7
21,N#Cc1ccc(NC(=O)c2cc(=O)c3ccccc3o2)cc1,-12.9
22,COc1ccc(CNC(=O)CCn2cccc2)cc1,3.99
23,Nc1cccc(C(=O)Nc2ccccc2Cl)c1,14.5

row,SMILES,"hERG current change (%, negative = inhibition) at 1uM [%]"
1,CCOc1ccc(S(=O)(=O)NCC(=O)NC2CCCCC2)cc1,7.89
2,COc1ccc(OC)c(N(CC(=O)NCc2ccncc2)S(C)(=O)=O)c1,17.7
3,COc1ccc(-c2[nH]ncc2CN2CCCO2)cc1F,16.3
4,COc1ccc(Cc2nnc(NC(=O)c3ccc(OC)c(OC)c3)s2)cc1OC,-0.781
5,Cc1onc(-c2ccccc2)c1C(=O)NNC(=O)c1ccccc1O,8.33
6,COC(=O)c1cc(-c2cccc([N+](=O)[O-])c2)c2c(=O)[nH]c(=O)n(C)c2n1,6.09
7,Cc1ccccc1N1CCN(c2ncnc3scc(-c4cccs4)c23)CC1,-11.8
8,Cc1cccc(C(=O)Nc2nccs2)c1[N+](=O)[O-],14
9,COc1ccc(-n2nc3c(c2NC(=O)c2c(F)cccc2Cl)CS(=O)C3)cc1 (stereo not drawn),7.81
10,COCCCNC(=O)Cn1cc(/C=C(\C#N)C(=O)NC2CC2)c2ccccc21,2.96
11,COc1cc(CN(C)CCc2ccccn2)cc(OC)c1OC.O=C(O)C(=O)O,8.32
12,NC(=O)c1oc2ccc(Cl)cc2c1N,8.2
13,COc1cc2c(cc1/C=C/C(=O)O)OC(C)C2 (stereo not drawn),1.07
14,O=C(COC(=O)C12CC3CC(CC(C3)C1)C2)Nc1ccc2[nH]c(=O)[nH]c2c1,12.4
15,COc1ccc(C2C(C(=O)N3CCCC3)c3cc(OC)c(OC)cc3C(=O)N2C)cc1 (stereo not drawn),11.8
16,Nc1ccccc1N1C(=O)c2cccc3cccc(c23)C1=O,5
17,O=C(CCS(=O)(=O)c1ccc(F)cc1)Nc1nc(-c2ccccn2)cs1,6.38
18,CC(=O)N1CCN(Cc2nc3cc(NC(=O)c4ccccc4)ccc3n2C)CC1,15.1
19,Cc1ccc(OCCOc2cccc(/C=N/NC(N)=O)c2)cc1,16
20,COCCNC(=O)C1CC(=O)N(C2CCCCC2)C1 (stereo not drawn),11.6
21,COc1ccc(-n2c(-c3cc(-c4ccccc4)sc3N)n[nH]c2=S)cc1,12.7
22,Cc1ccc(S(=O)(=O)/N=C2\SC(CC(=O)Nc3ccc(F)cc3)C(=O)N2c2ccccc2)cc1 (stereo not drawn),12.6
23,CCC(=O)OCC(=O)Nc1cc(C)c(C)cc1[N+](=O)[O-],8.26

row,SMILES,"hERG current change (%, negative = inhibition) at 1uM [%]"
1,CCCOC(=O)Nc1ccc(S(=O)(=O)Nc2ncccn2)cc1,0.276
2,Cc1cccc(C(C)(C)C)c1OCCN1CCCC1,3.03
3,COCCn1nnnc1C(c1ccc(OC)cc1OC)N1CCN(c2ccccc2F)CC1.Cl (stereo not drawn),-2.19
4,CC1CC1C(=O)Nc1nc2ccc(S(C)(=O)=O)cc2s1 (stereo not drawn),6.81
5,COc1ccc(OC)c(N(CC(=O)N2CCC(C)CC2)S(=O)(=O)c2ccccc2)c1,-12.6
6,CC[C@@H](C)[C@@H](C(=O)N1CCNCC1)n1cc(CCC(=O)O)nn1.Cl,2.7
7,COc1ccccc1NC(=O)CCS(=O)(=O)c1cc2c(cc1Cl)NC(=O)CO2,12.7
8,CCc1nnc(NC(=O)c2cc(S(=O)(=O)N3CCN(c4ccccc4)CC3)ccc2Cl)s1,8.28
9,COc1ccc(CCC(=O)N2CCN(c3cccc(C)c3C)CC2)cc1,9.53
10,Cc1ccc(C(=O)Nc2ccc3c(c2)OCO3)o1,10.2
11,O=S(=O)(NC1CCCCC1N1CCN(c2ccccc2F)CC1)c1ccc(Cl)cc1 (stereo not drawn),3.96
12,Cc1ccc(C(=O)NC2CC(=O)N(c3ccc4c(c3)OCCO4)C2)cc1[N+](=O)[O-] (stereo not drawn),17.4
13,COc1ccc(N2CCN(C3CCCN(C(=O)CN4CCOC4=O)C3)CC2)cc1 (stereo not drawn),5.58
14,CCN(CC)CCCn1c(=S)[nH]c2ccc(Cl)cc2c1=O,-25.5
15,CC(O)CNCCCOc1cccc(C(F)(F)F)c1.O=C(O)C(=O)O (stereo not drawn),5.23
16,CC(C)CC(=O)N1CCN(S(=O)(=O)c2ccccc2)CC1,8.07
17,O=C(NC1CCCCC1)c1nn2c(C(F)(F)F)cc(-c3ccco3)nc2c1Br,13.8
18,CCOC(=O)C1(C)NC(c2ccco2)C2C(=O)N(C)C(=O)C21 (stereo not drawn),10.1
19,Cn1cc(S(=O)(=O)N2CCCC2)cc1C(=O)N1CCN(c2cccc(Cl)c2)CC1,2.79
20,FC(F)(F)c1nc(NCc2cccnc2)c2ccccc2n1,18.9
21,CNC(=O)CS(=O)(=O)CC(=O)Nc1cc(OCCOC)c(Cl)cc1Cl,11.1
22,O=C(CC(=O)Nc1ccccc1C(=O)O)NNC(=O)Cc1ccccc1,-2.4
23,Cc1cc(Nc2ccccc2)nn1C(=O)c1ccc(Br)cc1,9.81

row,SMILES,"hERG current change (%, negative = inhibition) at 1uM [%]"
1,Cc1cc(S(=O)(=O)Nc2ccc(F)cc2)c(C)s1,8.79
2,COc1cccc(N=C(N)N)c1.Cl,7.54
3,COc1ccc(CN(C(=O)CN2C(=O)c3ccccc3S2(=O)=O)C(C(=O)NCC2CCCO2)c2ccco2)cc1 (stereo not drawn),-2.31
4,Cc1nnsc1-c1c(C(=O)N2CCOCC2)c(C)nn1-c1ccc(Cl)cc1,8.85
5,COc1cc(CNC(C)(C)C)ccc1OCC(=O)NC(C)(C)C,15
6,Cc1ccccc1C(=O)NC1CC2CCCC(C1)N2Cc1ccc(Cl)cc1 (stereo not drawn),-44.9
7,CC(=O)c1c(C)nn(CC(O)COc2ccc3ccccc3c2)c1C (stereo not drawn),7.91
8,O=C(O)CC(NC(=O)C12CC3CC(CC(C3)C1)C2)c1cc([N+](=O)[O-])ccc1Cl (stereo not drawn),2.33
9,N#Cc1ccc(Cn2cc(C(=O)c3ccco3)c3ccccc32)cc1,-12.8
10,CCN(CC)c1ccc(/C=N/N=C(c2ccccc2)c2ccccc2)c(O)c1,-0.682
11,Cc1ccc(-c2nc3ccc(NS(=O)(=O)c4ccccc4)cc3[nH]2)o1,12
12,Cc1ccc(N2CC(C(=O)NC3CCSC3=O)CC2=O)cc1 (stereo not drawn),13.7
13,Cc1nc2nc[nH]n2c(=O)c1CCOC(=O)c1c(F)cccc1F,14.9
14,Cc1cc(C)n(CC(=O)Nc2ccccc2)n1,9.86
15,S=c1nc(NCc2cccc(Cl)c2)c2ccccc2[nH]1,11.6
16,CC1CN(C(=O)CSc2nnc3c(Cl)cc(Cl)cn23)CC(C)O1 (stereo not drawn),6.25
17,CSCCC(NC(=O)c1cccc(S(=O)(=O)N2CCOCC2)c1)C(=O)Nc1cccc(C)c1 (stereo not drawn),15
18,CCCOc1ccc(-c2cc(C(F)(F)F)c(C#N)c(SCC(=O)O)n2)cc1,12.7
19,O=C(NCC1CCCO1)C1CCCN1C(=O)NC1CCCCC1 (stereo not drawn),12.8
20,c1ccc(CN(Cc2ccco2)C(c2ccncc2)c2nnnn2C2CCCC2)cc1 (stereo not drawn),1.34
21,COC(=O)NNS(=O)(=O)c1ccc(C)cc1,21.2

# From publication PMC4336329 (PLoS ONE, 2015)
